The BET-seq Pho4 binding data (Le et al. 2018)
The other results are listed elsewhere or left out. The energies were worked out here from pooled read counts, against the library average; single values are noisy.

Biological target: T1, Pho4 (S. cerevisiae) (UniProt P07270)
T1 sequence: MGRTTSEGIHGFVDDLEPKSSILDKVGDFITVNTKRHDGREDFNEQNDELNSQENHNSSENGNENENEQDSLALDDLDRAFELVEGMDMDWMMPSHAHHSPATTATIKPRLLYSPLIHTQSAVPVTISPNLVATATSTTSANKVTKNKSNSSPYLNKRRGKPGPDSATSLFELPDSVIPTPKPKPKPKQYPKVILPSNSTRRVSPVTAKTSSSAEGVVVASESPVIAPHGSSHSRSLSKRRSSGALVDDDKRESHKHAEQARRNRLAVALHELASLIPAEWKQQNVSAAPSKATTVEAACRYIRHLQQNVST
Assay: relative binding free energy (BET-seq); higher = weaker binding
Settings: reference: library average

Sequence | relative binding free energy
TATGGCACGTGTTTGG | -0.01 kcal/mol
TTTTACACGTGATAGG | 0.14 kcal/mol
ATTTTCACGTGTGCGA | 0.11 kcal/mol
ATAATCACGTGTTTGA | -0.02 kcal/mol
TTATACACGTGAGATG | 0.36 kcal/mol
GTTATCACGTGACGGG | 0.21 kcal/mol
GAGGTCACGTGAGGCA | 0.48 kcal/mol
TATAACACGTGATGAT | 0.17 kcal/mol
GGAAGCACGTGAAGGT | 0.13 kcal/mol
TATAGCACGTGTAGAT | 0.03 kcal/mol
GGTGTCACGTGCGCAG | -0.07 kcal/mol
TATTACACGTGGGTTC | 0.05 kcal/mol
GTGCGCACGTGTGCGT | -0.06 kcal/mol
CAGCTCACGTGAGGTG | 0.32 kcal/mol
TGGTACACGTGGTGCA | -0.09 kcal/mol
ATTGTCACGTGTGCGT | 0.09 kcal/mol
GGTGTCACGTGGGCAA | -0.09 kcal/mol
AATATCACGTGGAGGT | 0.07 kcal/mol
TGATTCACGTGAGAGT | 0.32 kcal/mol
TCGAGCACGTGGTGGT | -0.25 kcal/mol
CATTACACGTGTTTGT | -0.02 kcal/mol
AACGGCACGTGTAAGG | -0.03 kcal/mol
GTGTGCACGTGGGGAC | 0.02 kcal/mol
TCGTACACGTGTGTAA | 0.3 kcal/mol
TCGGCCACGTGCGGGG | -0.05 kcal/mol

Sequence | relative binding free energy
CGGCGCACGTGCGGGT | -0.2 kcal/mol
GGTACCACGTGTTTTT | 0.07 kcal/mol
CTTTGCACGTGCTGTA | -0.08 kcal/mol
GAGGGCACGTGTGGAC | 0.09 kcal/mol
TTAGGCACGTGTAAGC | -0.01 kcal/mol
TTGAGCACGTGGCTGA | -0.18 kcal/mol
GGCGGCACGTGGCGGT | -0.07 kcal/mol
GTGTTCACGTGAAGTT | 0.49 kcal/mol
TTGTACACGTGGATCT | 0.15 kcal/mol
ATGAGCACGTGGGCGA | -0.21 kcal/mol
CTCAGCACGTGGGGTG | -0.07 kcal/mol
GAGGTCACGTGTTTAG | 0.34 kcal/mol
GCGTGCACGTGTGTGC | 0.06 kcal/mol
TTGCGCACGTGGCTTT | -0.25 kcal/mol
TTGTTCACGTGTGCCG | 0.28 kcal/mol
CGTAACACGTGGGTGA | -0.13 kcal/mol
GCGGTCACGTGCGGTT | 0.22 kcal/mol
GGGAACACGTGTGGGG | 0.06 kcal/mol
GTAATCACGTGATATT | 0.35 kcal/mol
AGTATCACGTGTTACT | 0.14 kcal/mol
GGATTCACGTGGTTTC | 0.32 kcal/mol
TGATTCACGTGTCGAG | 0.22 kcal/mol
AAGTGCACGTGGCGTT | -0.07 kcal/mol
AGTGGCACGTGTCGGG | -0.16 kcal/mol
GAGGGCACGTGGCGAT | -0.2 kcal/mol

Sequence | relative binding free energy
AGAAGCACGTGTGGTT | 0.03 kcal/mol
TTGAGCACGTGATAGC | 0.02 kcal/mol
CGGTACACGTGGCGCG | 0.12 kcal/mol
CTTTTCACGTGTGCGG | 0.27 kcal/mol
TAGTCCACGTGTGGGA | -0.02 kcal/mol
TTTGCCACGTGGTGAT | -0.23 kcal/mol
TTTCGCACGTGCGGGG | -0.04 kcal/mol
AGTGTCACGTGATTAT | 0.05 kcal/mol
TGGATCACGTGTTCGT | 0.03 kcal/mol
AAGGTCACGTGCTGGT | 0.17 kcal/mol
TTGTTCACGTGAGAAA | 0.43 kcal/mol
TCTGCCACGTGTGGGT | -0.02 kcal/mol
AGGTTCACGTGGTCTT | 0.17 kcal/mol
TGATGCACGTGAAGTT | 0.3 kcal/mol
TTTGACACGTGTTCGA | 0.07 kcal/mol
GGAAGCACGTGATGTG | 0.01 kcal/mol
GAATTCACGTGGGGTG | 0.22 kcal/mol
GGTCTCACGTGTGATT | 0.25 kcal/mol
GGTAACACGTGGTTGG | 0.03 kcal/mol
TATGTCACGTGAATGA | 0.21 kcal/mol
GAACTCACGTGAGGGG | 0.55 kcal/mol
CGTATCACGTGTCGTT | 0 kcal/mol
AGGCACACGTGGGGGG | -0.08 kcal/mol
TTTATCACGTGGTAGG | 0.11 kcal/mol
TTCATCACGTGCATGT | 0.18 kcal/mol

Sequence | relative binding free energy
ATATTCACGTGGAGCT | 0.15 kcal/mol
GGTGTCACGTGATACG | 0.11 kcal/mol
GGGAACACGTGGTGTA | -0.03 kcal/mol
GTGGGCACGTGGAGTC | 0.05 kcal/mol
TGATTCACGTGTGTGC | 0.21 kcal/mol
TGTTACACGTGTAGTA | 0.12 kcal/mol
TAGAGCACGTGTGTAA | -0.17 kcal/mol
TGACTCACGTGTATGG | 0.17 kcal/mol
GAAGGCACGTGTGGGA | -0.04 kcal/mol
CGTGCCACGTGTTTGG | -0.11 kcal/mol
GTTCTCACGTGTTGAA | 0.4 kcal/mol
ATGGGCACGTGATCGT | -0.15 kcal/mol
GCTAGCACGTGTGCGG | 0.1 kcal/mol
TATATCACGTGGGGGG | -0.02 kcal/mol
GGATTCACGTGGCGGG | 0.18 kcal/mol
TATTTCACGTGTTTCG | 0.35 kcal/mol
TGGTGCACGTGATGTA | -0.04 kcal/mol
TTTGACACGTGGGCAT | -0.23 kcal/mol
AGTAGCACGTGAGAAT | 0.21 kcal/mol
AGGGTCACGTGAGGGA | 0.27 kcal/mol
TCAGACACGTGGAGTG | 0.01 kcal/mol
GTTGGCACGTGATATT | 0.04 kcal/mol
TGGAACACGTGTTGAT | 0.14 kcal/mol
GTAATCACGTGGTTTG | 0.07 kcal/mol
GGACTCACGTGGGCGG | 0.09 kcal/mol

Sequence | relative binding free energy
GGAGTCACGTGAGAGG | 0.43 kcal/mol
TTTGACACGTGTTTGC | 0.02 kcal/mol
GTAGCCACGTGTAGGG | -0.07 kcal/mol
CGCGACACGTGGGGGA | -0.01 kcal/mol
ATAGTCACGTGGCTGA | 0.03 kcal/mol
TTTGCCACGTGGTGCA | -0.08 kcal/mol
GTTCTCACGTGGGGCT | 0.17 kcal/mol
CGAGTCACGTGAAGTT | 0.4 kcal/mol
ATGATCACGTGGTACT | 0.04 kcal/mol
TGGAACACGTGGTAGG | -0.03 kcal/mol
GGAGCCACGTGGGGGG | -0.19 kcal/mol
AGGGGCACGTGAAATG | 0.04 kcal/mol
GGTTGCACGTGATAAT | 0.25 kcal/mol
AAGTTCACGTGGGGGT | 0.14 kcal/mol
ACTTTCACGTGGTGTG | 0.05 kcal/mol
TTCTCCACGTGGTGGG | 0.04 kcal/mol
GTTGTCACGTGTGCGG | 0.14 kcal/mol
GTGATCACGTGATTTA | 0.36 kcal/mol
GGTTCCACGTGGGTGG | 0.11 kcal/mol
AGCGTCACGTGAAGGG | 0.31 kcal/mol
TTTTACACGTGTGGGC | 0.19 kcal/mol
TACGACACGTGGTTGG | -0.03 kcal/mol
TGTCTCACGTGCTGGG | 0.2 kcal/mol
GTTTACACGTGTGACG | 0.09 kcal/mol
TTGGTCACGTGGTTAG | 0.11 kcal/mol

Sequence | relative binding free energy
TGGATCACGTGGTTCA | 0.01 kcal/mol
CTTGACACGTGGGGCG | -0.14 kcal/mol
CTGCTCACGTGAGGTG | 0.33 kcal/mol
GCGGGCACGTGGTTCT | -0.07 kcal/mol
TGTCTCACGTGTCAGG | 0.23 kcal/mol
TAGCGCACGTGTTGGG | -0.13 kcal/mol
ATGGGCACGTGGCCTG | -0.28 kcal/mol
CTGCGCACGTGGTGTA | -0.31 kcal/mol
TTTGGCACGTGTCCAG | -0.02 kcal/mol
TATTTCACGTGGAAAA | 0.39 kcal/mol
GTGTTCACGTGCGAAG | 0.29 kcal/mol
CGGTTCACGTGAGTTG | 0.43 kcal/mol
AGGACCACGTGTGGGG | -0.08 kcal/mol
GTTTGCACGTGAGCCG | 0.14 kcal/mol
AGGTACACGTGAGGGC | 0.28 kcal/mol
TAGAACACGTGAGTGT | 0.28 kcal/mol
CTTCGCACGTGTTGGG | -0.17 kcal/mol
GCTTGCACGTGATGGC | 0.26 kcal/mol
GTTGTCACGTGGTAGT | 0.13 kcal/mol
CTTAGCACGTGTTGGC | -0.04 kcal/mol
TTACACACGTGGGTTG | -0.26 kcal/mol
